Experimental data published in PubChem BioAssay AID652104 (National Center for Advancing Translational Sciences (NCATS), 2013).
Hit rate of the full screen: of about 410,000 compounds, about 7,200 (1.8%) were called active. The inconclusive results got no clear call from the source; some entries with a clear call stand among them for comparison. Calls come from the whole dose curve; as a rule, active = well fitted activation curve with a large enough effect; inconclusive = small, poorly fitted or top-dose-only effect, or another doubt; inactive = no such curve, though single readings can be large or run the other way. Potencies of inconclusive entries are left out as doubtful fits.

test: qHTS of TDP-43 Inhibitors; details: TDP-43 expressing yeast growth rescue, BacTiter-Glo, 24 h; growth rescue (activation): at 46.1 µM (top of the series); note: nearly all actives have a fitted effect of over 50% in size; for growth rescue (activation): % of control where 0% means no effect
How it was run: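 Cell-based yeast growth screen: TDP-43 expression induced in galactose, inoculum OD600=0.02 after raffinose pregrowth to mid-log. Read-out BacTiter-Glo luminescence at 24 hr, 30 deg C; inhibition of toxicity seen as signal increase.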
Potency is the fitted concentration of half-maximal effect; tags give direction and shape of the fitted curve.

Compound	Potency	growth rescue (activation)
COC(=O)C1=C(c2ccc(F)cc2OCc2ccccc2)C[C@@H]2CC[C@H]1N2C(=O)NCc1ccc([N+](=O)[O-])cc1	inconclusive [activator, partial curve, poor fit]	
Clc1ccc(COC(Cn2ccnc2)c2ccc(Cl)cc2Cl)c(Cl)c1 (stereo not given)		inconclusive: -33.4% [activator]
Cc1nn(C)c(C)c1/C=C1/CC2C3CC=C4CC(O)CCC4(C)C3CCC2(C)C1=O (stereo not given)	inconclusive [activator, single point]	
COCCOC(=O)C1=C(C)OC(N)=C(C(=O)OC)C12C(=O)Nc1ccccc12 (stereo not given)	inconclusive [activator, partial curve]	
C[C@@H]1CN(C2CCC(C#N)(c3ccc(F)cc3)CC2)CC[C@]1(C(=O)O)c1ccccc1 (stereo not given in full)	inconclusive [activator, full curve, poor fit]	
CCCCCCN=Cc1c(O)n(C)c(=O)n(C)c1=O	inconclusive [activator, partial curve]	
O=C(NCc1ccc(Cl)cc1)C1CCCN(C(=O)c2cnn(-c3ccc(F)cc3)c2-n2cccc2)C1 (stereo not given)	inconclusive [activator, single point]	
CC1(O)CCN2C(=O)CCc3cccc1c32 (stereo not given)	active: 12.6 µM	
O=C(c1cccs1)c1cn(Cc2ccccc2Cl)c2ccccc12	inconclusive [activator, single point]	
COc1ccc(C2CC(c3cccs3)=NN2c2nc(C)c(C(C)=O)s2)cc1OC (stereo not given)	inconclusive [activator, single point]	
O=C1C2(Cl)C3(Cl)C4(Cl)C(Cl)(Cl)C5(Cl)C3(Cl)C1(Cl)C5(Cl)C24Cl (stereo not given)		inconclusive: -84.1% [activator]
COCCCn1c(-c2ccc(OC)cc2)cc(C(=O)NC2CCCCCCC2)c1C	inconclusive [activator, partial curve]	
CCOC(=O)Cn1cc(C(=O)c2ccccc2F)c2ccccc21	inconclusive [activator, single point]	
CCC(=O)OC1(c2ccccc2)CCN(C)CC1C (stereo not given)	inconclusive [activator, full curve, poor fit]	
c1ccc2nc3ccccc3nc2c1	inconclusive [activator, full curve, poor fit]	
CC(=O)c1cn(CCCOc2ccccc2)c2ccccc12	active: 11.2 µM	
Nc1c(Br)cc([N+](=O)[O-])cc1[N+](=O)[O-]	active: 12.6 µM	
Cc1c(C(c2ccc(F)cc2)c2c(O)c3ccccc3oc2=O)c(=O)n(-c2ccccc2)n1C (stereo not given)	inconclusive [activator, single point]	
CCOc1ccc(C2CC(c3c(O)n(C)c(=O)n(C)c3=O)=NN2)cc1 (stereo not given)	inactive	
CCn1c(O)c(/C=N/N2CCOCC2)c(=O)n(CC)c1=S	inconclusive [activator, partial curve]	
CCCCCNC(=O)C(c1ccncc1)n1c(=O)c(-c2cc3ccccc3[nH]2)nc2ccccc21 (stereo not given)	inconclusive [activator, full curve]	
CC(=CCOc1ccc2ccc(=O)oc2c1)C1=CC(=O)C(C)(C)O1	inconclusive [activator, single point]	

Compound	Potency	growth rescue (activation)
CCOP1(=O)C=C(Sc2ccc([N+](=O)[O-])cc2[N+](=O)[O-])C(C)(C)O1 (stereo not given)	inconclusive [activator, partial curve]	
Cc1c(N)c(C)c([N+](=O)[O-])c(C)c1[N+](=O)[O-]	inconclusive [activator, single point]	
COc1ccc(-n2c(CNCCc3ccc(C)cc3)nc3ccccc3c2=O)cc1	inconclusive [activator, partial curve]	
COc1ccc(-c2nc3ccc(Br)cn3c2CC(=O)N2CCCC2)cc1OC	inconclusive [activator, full curve, poor fit]	
CNC(C)C#Cc1ccc2c(=O)c3ccccc3oc2c1 (stereo not given)	inconclusive [activator, partial curve]	
Cc1cc(C)cc(-n2c(=O)[nH]c3ccccc3c2=O)c1	inconclusive [activator, single point]	
COC(=O)c1cn(Cc2ccc(F)cc2)c2ccccc12	inconclusive [activator, partial curve]	
Clc1ccc(CSc2nnc(-c3ccccn3)n2Cc2ccco2)cc1Cl	inconclusive [activator, single point]	
COc1ccccc1C(=O)Nc1nnc(-c2ccc(Cl)cc2)o1	active: 12.6 µM	
CN(C)C(=O)Oc1ccc2ccccc2c1Cl	inconclusive [activator, single point]	
COc1ccc(/C=C/c2nc(-c3ccccc3O)n(-c3ccccc3)n2)cc1OC	inconclusive [activator, full curve, poor fit]	
COC(=O)C1=C(c2ccc(F)cc2OCc2ccccc2)C[C@@H]2CC[C@H]1N2C(=O)NCc1ccc(C(C)(C)C)cc1	inconclusive [activator, full curve]	
C=CC1CN2CCC1CC2C(O)c1ccnc2ccccc12 (stereo not given)	inconclusive [activator, full curve, poor fit]	
CCC(C(=O)Nc1ccc(Cl)cc1)N1CCCC1=O (stereo not given)	inactive	
Cc1ccc(NC(=O)COc2ccc(-c3nn(C)c(=O)c4ccccc34)cc2)cc1	inconclusive [activator, single point]	
O=C(CSc1ccc(Cl)cc1)NC1=NN(c2ccccc2)C(=O)C1	inconclusive [activator, single point]	
O=[N+]([O-])c1ccc(O)c([N+](=O)[O-])c1	inactive	
COc1ccccc1N1CCN(S(=O)(=O)c2ccc3c(c2)oc(=O)n3C)CC1	inconclusive [activator, partial curve, poor fit]	
Cc1ccc(C2NC(=S)N3C(c4ccc(C)cc4)NC(=S)N23)cc1 (stereo not given)	inconclusive [activator, partial curve]	
CC(C)C/C(=N/O)c1c[nH]c2ccccc12	inconclusive [activator, partial curve]	
CNC(=O)Oc1ccc2c(c1)C(=O)c1ccccc1CO2	inactive	
CCOc1ccc(S(=O)(=O)NCc2ccc3c(c2)OCO3)cc1C	active: 12.6 µM	

Compound	Potency	growth rescue (activation)
N#CC(C#N)=Cc1ccc(N2CCOCC2)cc1	inconclusive [activator, single point]	
C[C@H]1CN([C@@H](C)CO)C(=O)Cc2cc(NC(=O)Cc3ccccc3)ccc2O[C@H]1CN(C)S(=O)(=O)c1cccs1	inconclusive [activator, partial curve]	
c1ccc2c(c1)c1cccc3ccc4cccc2c4c31	inconclusive [activator, partial curve]	
Clc1cccc(/C=N\Nc2nccs2)c1	inconclusive [activator, single point]	
Cc1ccc(C)c(N2CCN(C(=O)C3CCCN(S(=O)(=O)c4cccc5nsnc45)C3)CC2)c1 (stereo not given)	inconclusive [activator, partial curve, poor fit]	
O=[N+]([O-])c1cccc(NP(=O)(Oc2ccccc2)Oc2ccccc2)c1	active: 22.4 µM	
O=C1NCN(c2ccccc2)C12CCNCC2	inactive	
COc1ccc(CN2CCN(Cc3ccccc3OC)CC2)cc1	inactive	
CN1C(=O)/C(=C/C=C/c2ccco2)C(=O)NC1=S	inconclusive [activator, single point]	
O=[N+]([O-])NC1=NCCN1Cc1ccc(Cl)nc1	inactive	
CN(Cc1cccc(-c2ccncc2)c1)C(=O)Oc1ccccc1Cc1ccccc1	inconclusive [activator, partial curve]	
C[C@]12CCC(=O)C=C1CC[C@@H]1C2CC[C@]2(C)C(=O)CCC12 (stereo not given in full)	inconclusive [activator, partial curve]	
COc1cccc(N2C(=O)NC(=O)C3(Cc4cc(C)ccc4N(C)C3)C2=O)c1 (stereo not given)	inconclusive [activator, single point]	
CC1CCCC(NC(=O)COC(=O)c2cn(C)c3ccccc23)C1C (stereo not given)	inconclusive [activator, partial curve, poor fit]	
CCCCCCC(=O)c1c(O)n(-c2ccccc2OC)c(=O)[nH]c1=O	inconclusive [activator, single point]	
Cn1c(=O)oc2cc(NC(=O)CCl)ccc21	inconclusive [activator, single point]	
O=C1NC(=O)C(=Cc2ccc(SC3CCCCC3)o2)C(=O)N1		inconclusive: -86.8% [activator]
CCCNC(=O)c1c(N)n(CC2CCCO2)c2nc3ccccc3nc12 (stereo not given)	inconclusive [activator, single point]	
COc1ccc(NC(=O)CN2C(=O)C(C)N=C(c3ccccc3F)c3cc(Cl)ccc32)c(OC)c1 (stereo not given)	inconclusive [activator, partial curve]	
S=c1[nH]nc(-c2ccccc2)n1C1C=CCCC1 (stereo not given)	inconclusive [activator, single point]	
Cn1c(O)c(C(c2ccncc2)c2c(O)n(C)c(=S)n(C)c2=O)c(=O)n(C)c1=S	inconclusive [activator, single point]	
